These results are taken from article PMC4336329 (PLoS ONE, 2015).

The campaign covered roughly 310,000 compounds. About 14,000 (4.5%) showed an effect of 50% or more. Effects have a minus sign here. The list shows a part of the results.
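Note: peak tail current of the secondary pulse compared with the same well before compound.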

The target of the test is human ether-à-go-go-related gene (hERG) potassium channel (human, UniProt Q12809). The experiment in a line: primary screen, population patch clamp on CHO cells stably expressing hERG.
human ether-à-go-go-related gene (hERG) potassium channel, sequence (Q12809 whole entry, looked up): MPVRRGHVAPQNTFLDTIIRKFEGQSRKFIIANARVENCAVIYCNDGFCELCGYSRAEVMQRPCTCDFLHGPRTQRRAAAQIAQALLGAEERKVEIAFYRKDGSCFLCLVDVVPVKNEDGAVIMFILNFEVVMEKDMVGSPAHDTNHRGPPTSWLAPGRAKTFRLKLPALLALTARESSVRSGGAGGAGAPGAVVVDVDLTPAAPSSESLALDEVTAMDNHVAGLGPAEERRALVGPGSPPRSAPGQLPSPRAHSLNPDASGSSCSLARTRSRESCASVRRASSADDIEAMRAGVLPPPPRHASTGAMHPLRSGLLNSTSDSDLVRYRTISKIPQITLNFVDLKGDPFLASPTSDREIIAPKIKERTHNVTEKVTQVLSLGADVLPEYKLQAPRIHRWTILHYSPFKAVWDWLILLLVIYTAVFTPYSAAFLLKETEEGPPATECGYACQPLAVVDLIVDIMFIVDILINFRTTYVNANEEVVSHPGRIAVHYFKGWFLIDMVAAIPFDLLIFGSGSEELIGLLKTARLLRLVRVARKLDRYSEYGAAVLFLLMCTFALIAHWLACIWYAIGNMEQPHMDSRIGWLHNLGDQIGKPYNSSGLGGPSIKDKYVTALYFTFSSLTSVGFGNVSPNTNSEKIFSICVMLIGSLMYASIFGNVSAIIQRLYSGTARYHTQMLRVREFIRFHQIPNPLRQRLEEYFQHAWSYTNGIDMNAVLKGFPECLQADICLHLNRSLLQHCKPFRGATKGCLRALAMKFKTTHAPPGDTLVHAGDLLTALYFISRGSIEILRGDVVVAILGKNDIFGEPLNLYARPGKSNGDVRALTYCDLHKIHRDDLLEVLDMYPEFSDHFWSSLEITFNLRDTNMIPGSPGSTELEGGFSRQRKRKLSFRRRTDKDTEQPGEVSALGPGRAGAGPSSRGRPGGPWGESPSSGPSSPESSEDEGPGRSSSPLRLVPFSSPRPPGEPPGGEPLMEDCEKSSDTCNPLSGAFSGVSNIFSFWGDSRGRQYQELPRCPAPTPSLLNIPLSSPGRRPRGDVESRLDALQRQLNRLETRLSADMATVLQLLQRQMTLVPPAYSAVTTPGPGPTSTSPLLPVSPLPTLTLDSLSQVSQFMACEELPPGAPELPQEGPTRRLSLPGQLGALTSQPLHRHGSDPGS
For `CCCc1cc(=O)oc2c(C)c(OCC(=O)N3CCC[C@@H]3C(=O)O)ccc12`, the “hERG current change (%, negative = inhibition) at 10uM” value was found to be 11.7%.

Regarding `Clc1cccc(CNCC2CCCO2)c1Cl` (stereo not drawn), the “hERG current change (%, negative = inhibition) at 10uM” value is -20.9%.

For the compound `Cc1c(-c2ccccc2)oc2c(C(=O)OCC(=O)Nc3ccc(F)cc3)cccc2c1=O`, the “hERG current change (%, negative = inhibition) at 10uM” value is listed as -3.13%.

Regarding `FC(c1nc2ccccc2[nH]1)C(F)(F)F` (stereo not drawn), the “hERG current change (%, negative = inhibition) at 10uM” value is reported as 27.9%.

Take `CCOc1ccccc1-c1nc2c(C(C)(C)C)nn(C)c2c(=O)[nH]1`: the “hERG current change (%, negative = inhibition) at 10uM” value was -1.87%.

Take `OCc1cccc[n+]1CCc1ccccc1.[Br-]`: the “hERG current change (%, negative = inhibition) at 10uM” value worked out at 21.8%.

For the compound `Cc1ccccc1S(=O)(=O)Cc1ccc(C(=O)NC2CCCCCC2)o1`, the “hERG current change (%, negative = inhibition) at 10uM” value is listed as -31.9%.

Turning to `CCN(CC)S(=O)(=O)c1ccc(-c2cn3ccc(C)cc3n2)cc1`, the “hERG current change (%, negative = inhibition) at 10uM” value turned out to be 7.52%.

As for `CC12CCC(=O)N1C(C(=O)Nc1ccc(F)c(F)c1F)CS2` (stereo not drawn), the “hERG current change (%, negative = inhibition) at 10uM” value is reported as 11%.

Regarding `N#CC1=C(SCC(N)=O)NC(=O)CC1c1ccccc1Cl` (stereo not drawn), the “hERG current change (%, negative = inhibition) at 10uM” value was 0.122%.

Regarding `O=C(c1cc(-c2ccc3c(c2)OCO3)on1)N1CCN(c2ccc(F)cc2)CC1`, the “hERG current change (%, negative = inhibition) at 10uM” value is -10.1%.

Regarding `N#Cc1ccccc1OCC(=O)N(C1CCCCC1)C1CCS(=O)(=O)C1` (stereo not drawn), the “hERG current change (%, negative = inhibition) at 10uM” value worked out at 2.42%.

Turning to `C=CCOC(=O)c1c(C)nc2cc3c(cc2c1C)OCO3.Cl`, the “hERG current change (%, negative = inhibition) at 10uM” value was -13.6%.

Consider `Cc1ccc(C)c(N2CCN(C(=O)CN3C(=O)c4ccccc4C3=O)CC2)c1`, for which the “hERG current change (%, negative = inhibition) at 10uM” value was -19.1%.

For `COc1cc2c(C(=O)NCc3ccc4c(c3)OCO4)cn(C)c(=O)c2cc1OC`, the “hERG current change (%, negative = inhibition) at 10uM” value stood at 13.1%.

With `COC(=O)c1ccc(NS(=O)(=O)c2cc(-c3cc(C)no3)ccc2OC)cc1`, the “hERG current change (%, negative = inhibition) at 10uM” value is reported as 4.72%.

On to `Cc1cccc(-c2oc3ccccc3c2C#CCCCCO)c1`, for which the “hERG current change (%, negative = inhibition) at 10uM” value came to 20.2%.

As for `CCCCN(CC)CCCNC(=O)c1cc2c(=O)n(C)c3ccccc3c2n1C`, the “hERG current change (%, negative = inhibition) at 10uM” value is reported as -42.1%.

`CCOC(=O)C1(Cc2cccc(F)c2)CCN(C(=O)c2cnc(C)cn2)CC1`: the “hERG current change (%, negative = inhibition) at 10uM” value is -22.6%.

`CC(Sc1n[nH]c(N)n1)C(=O)Nc1ccc(Cl)cn1` (stereo not drawn): the “hERG current change (%, negative = inhibition) at 10uM” value is recorded as 18.6%.

For `C/C(=N\NS(=O)(=O)c1ccccc1)c1ccccc1`, the “hERG current change (%, negative = inhibition) at 10uM” value is reported as 22.1%.

For `OC(CSc1ccc(F)cc1)CN1CCN(c2ccccc2)CC1` (stereo not drawn), the “hERG current change (%, negative = inhibition) at 10uM” value is -41.7%.

Regarding `NC(=O)C1CCCN(C(=O)c2ccc3c(c2)NC(=O)CS3)C1` (stereo not drawn), the “hERG current change (%, negative = inhibition) at 10uM” value came to 11.2%.

As to `CCCN(CCC)CC(O)Cn1c2ccccc2c2ccccc21` (stereo not drawn), the “hERG current change (%, negative = inhibition) at 10uM” value was -32.1%.

As for `Cc1ccc(NS(=O)(=O)c2ccc3c(c2)NC(=O)C(C)C(=O)N3)c(Br)c1` (stereo not drawn), the “hERG current change (%, negative = inhibition) at 10uM” value came out at 17.3%.

On to `CCn1ccnc1CN(C)Cc1nc(CCC(C)C)no1`, for which the “hERG current change (%, negative = inhibition) at 10uM” value amounted to 4.23%.

`CCn1c(CSc2nncn2-c2ccc(OC)cc2)nc2cc(S(=O)(=O)N(C)C)ccc21`: the “hERG current change (%, negative = inhibition) at 10uM” value is listed as -14.5%.

On to `Cc1nn(-c2ccccc2)c2sc(C(=O)NC3CCCCC3)cc12`, for which the “hERG current change (%, negative = inhibition) at 10uM” value is -11.8%.

Turning to `Cc1ccc2[nH]c(=O)c(C(c3nnnn3C(C)(C)C)N3CCN(C(=O)c4ccco4)CC3)cc2c1` (stereo not drawn), the “hERG current change (%, negative = inhibition) at 10uM” value is reported as -24.8%.

With `COc1ccc(C(=O)NNC(=S)Nc2ccccc2)cc1`, the “hERG current change (%, negative = inhibition) at 10uM” value is 14%.

Consider `COC(=O)COc1ccc(C2Nc3c(Cl)ccc(C(=O)O)c3C3C=CCC32)cc1` (stereo not drawn), for which the “hERG current change (%, negative = inhibition) at 10uM” value is 12.9%.

With `CNc1snc(C)c1C(=O)OC(C)C(=O)c1ccc(F)cc1` (stereo not drawn), the “hERG current change (%, negative = inhibition) at 10uM” value is listed as -18.6%.

Regarding `O=c1[nH]c(-c2ccccc2)nc(-c2ccccc2)c1Cl`, the “hERG current change (%, negative = inhibition) at 10uM” value is recorded as -0.306%.

Turning to `CCn1cc(SCC(=O)NC2CCCC2)c2ccccc21`, the “hERG current change (%, negative = inhibition) at 10uM” value is -4.12%.

As to `Cc1cc(-c2cccs2)c2c(N)c(C(=O)c3ccc4c(c3)OCO4)sc2n1`, the “hERG current change (%, negative = inhibition) at 10uM” value is 5.2%.

In the case of `CC(C)(C)NC(=O)CCN(/N=C/c1ccc([N+](=O)[O-])o1)C1=NS(=O)(=O)c2ccccc21`, the “hERG current change (%, negative = inhibition) at 10uM” value is reported as 1.37%.

For the compound `CC(=O)Cn1ncc(N2CCOCC2)c(Br)c1=O`, the “hERG current change (%, negative = inhibition) at 10uM” value amounted to 17.6%.

Take `COc1ccc(CNC(=O)C2CCC(CNS(=O)(=O)c3cccc4cccnc34)CC2)cc1` (stereo not drawn): the “hERG current change (%, negative = inhibition) at 10uM” value worked out at 0.14%.

Take `COc1ccc(Cn2c(=O)[nH]c3cc(C(=O)N4CCN(c5ccc(C(C)=O)cc5)CC4)ccc3c2=O)cc1`: the “hERG current change (%, negative = inhibition) at 10uM” value was 9.1%.

On to `CCCn1c(=O)c2c(c3ccccc31)OCC(=O)N2`, for which the “hERG current change (%, negative = inhibition) at 10uM” value is reported as 12.5%.

On to `COc1cc(/C=N/NC(=O)c2ccncc2)ccc1OCc1cnc(Cl)s1`, for which the “hERG current change (%, negative = inhibition) at 10uM” value came out at 2.43%.

In the case of `CC1C2=C(CC(C)(C)CC2=O)NC2=C1C(=O)CC(C)(C)C2`, the “hERG current change (%, negative = inhibition) at 10uM” value worked out at 30.4%.

On to `O=C(OCC(=O)N1CCOCC1)c1ccc2ccccc2c1`, for which the “hERG current change (%, negative = inhibition) at 10uM” value is -17.9%.

In the case of `Cn1c(/C(C#N)=C/c2ccc(O)cc2)nc2ccccc21`, the “hERG current change (%, negative = inhibition) at 10uM” value is reported as -0.139%.

Take `Cc1ccc(CN2CCN(c3cccc4[nH]ccc34)CC2)cc1`: the “hERG current change (%, negative = inhibition) at 10uM” value was -60.4%.
